Reference: PubChem BioAssay AID1347120 (National Center for Advancing Translational Sciences (NCATS), 2019)
Hit rate of the full screen: of about 390,000 compounds, about 930 (0.24%) were called active. Inconclusive results, whose numbers are uncertain, are shown with a selection of clear calls. Calls come from the whole dose curve; as a rule, active = well fitted activation curve with a large enough effect; inconclusive = small, poorly fitted or top-dose-only effect; inactive = no such curve, though single readings can be large or run the other way. Where the call is inconclusive, the potency comes from a doubtful curve fit.

Experiment: qHTS for Suppressors of FUS Proteinopathy: Primary screen using FUS-linked yeast assay; note: nearly all actives have a fitted effect of over 55% in size
Conditions: S. cerevisiae FUS-expressing, OD600, 24 h; Potency: growth rescue; series mostly up to 76.6 µM
How it was run: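 Absorbance at 600 nm, taken 24hr after compound addition, measured rescue of FUS-yeast growth at 30C. Induction used 2% galactose with seeding at OD 0.005. Controls: CP55940 from 92uM final, DMSO only.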
Potency is the fitted concentration of half-maximal effect; tags give direction and shape of the fitted curve.

Row | SMILES | Potency
1 | Cc1ccc2c(c1)c(=O)c(C(=O)c1ccc3c(c1)OCO3)cn2Cc1ccc(Cl)cc1 | inconclusive: 15.8 µM [activator, partial curve, poor fit]
2 | CCCCn1c(N)c(S(=O)(=O)c2ccc(C)cc2)c2nc3ccccc3nc21 | inconclusive: 11.2 µM [activator, partial curve, poor fit]
3 | C(=C\c1ccccc1)/CSc1nnc(COc2ccccc2)n1Cc1ccco1 | inconclusive: 31.6 µM [activator, single point]
4 | CCOc1ccc(CN(C(=O)c2cc(=O)c3cc(C)cc(C)c3o2)C2CCS(=O)(=O)C2)cc1 (configuration not stated) | inconclusive: 20 µM [activator, single point]
5 | COc1ccccc1NC(=S)OCCN1CCCC12CCC(c1ccccc1)CC2 (configuration not stated) | inconclusive: 25.1 µM [activator, partial curve, poor fit]
6 | Cc1ccc(Cl)cc1NC(=O)c1oc2ccc(S(=O)(=O)N(C)C3CCCCC3)cc2c1C | inactive
7 | Cc1cccc(CS(=O)(=O)c2ncc(Cl)c(C(=O)Nc3c(C)cccc3C)n2)c1 | inconclusive: 50.1 µM [activator, single point]
8 | Cc1ccc(-c2nc3cnccn3c2Nc2ccc3c(c2)OCO3)cc1 | inactive
9 | Cc1nn(C(C)C(=O)N2CCN(c3ccc(Cl)cc3)CC2)c(=O)c2cc3occc3n12 (configuration not stated) | inconclusive: 31.6 µM [activator, partial curve, poor fit]
10 | CC(=O)CSc1nnc2cc(C)c3cc(C)cc(C)c3n12 | inactive
11 | CCCn1c(N2CCN(S(=O)(=O)Cc3ccccc3)CC2)nc2ccccc21 | inconclusive: 39.8 µM [activator, single point]
12 | O=C(Nc1ccc(Cl)c(S(=O)(=O)N2CCOCC2)c1)C1=NN(c2ccccc2)C(=O)CC1 | inconclusive: 35.5 µM [activator, partial curve, poor fit]
13 | COc1ccc(Cn2c(=S)[nH]c3ccccc32)cc1 | inactive
14 | O=C(CSc1nnc(-c2ccncc2)n1Cc1ccco1)c1ccc(Cl)cc1 | inconclusive: 15.8 µM [activator, partial curve, poor fit]
15 | CCOc1ccccc1N1CCN(c2nc(N)c(C#N)c(CC#N)c2C#N)CC1 | inconclusive: 25.1 µM [activator, partial curve]
16 | NC(=O)c1c(NC(=O)CSc2nnc(-c3ccco3)n2-c2ccccc2)sc2c1CCC2 | inconclusive: 35.5 µM [activator, single point]
17 | Cc1ccc(C)c(CN2C(=O)c3ccccc3S(=O)c3ccc(C(=O)N4CCN(c5cccc(Cl)c5)CC4)cc32)c1 (configuration not stated) | active: 10 µM
